{
  "source": "paper PMC5700166",
  "test_in_all_cases": "protein-binding microarray (PBM)",
  "conditions_in_all_cases": "PBM: ~300 nM protein, 6 mM HEPES pH 7.8, 80 mM KCl, 0.5 mM EDTA, 0.5 mM EGTA, 6% glycerol, 35 ng/ul poly-dIdC, 1% milk, 1 h, room temperature; Ap Aiptasia and Nv Nematostella (sea anemones) / Co Capsaspora / Aq Amphimedon (sponge) / Dm Drosophila / Hu human; RHD is the Rel homology domain; high values mean tight binding; most listed sequences are background and not binding sites; double strand, one strand shown",
  "key": {"[1]": {"biological_target": "T1, GST-Ap-NF-kB RHD (UniProt A0A913YAJ5)", "T1 sequence": "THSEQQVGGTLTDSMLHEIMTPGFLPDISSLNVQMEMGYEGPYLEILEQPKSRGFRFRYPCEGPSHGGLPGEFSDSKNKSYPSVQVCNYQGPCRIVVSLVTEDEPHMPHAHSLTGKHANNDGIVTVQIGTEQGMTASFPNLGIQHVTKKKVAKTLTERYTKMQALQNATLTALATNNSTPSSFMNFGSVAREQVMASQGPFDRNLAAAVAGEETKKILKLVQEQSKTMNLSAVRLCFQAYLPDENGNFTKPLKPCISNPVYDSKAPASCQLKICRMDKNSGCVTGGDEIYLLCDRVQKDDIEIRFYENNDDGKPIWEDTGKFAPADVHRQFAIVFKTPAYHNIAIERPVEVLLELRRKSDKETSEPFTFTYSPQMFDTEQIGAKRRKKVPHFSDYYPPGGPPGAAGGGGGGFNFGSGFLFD"}, "[2]": {"biological_target": "T2, GST-Nv-NF-kB (Cys allele) (UniProt E5G601)", "T2 sequence": "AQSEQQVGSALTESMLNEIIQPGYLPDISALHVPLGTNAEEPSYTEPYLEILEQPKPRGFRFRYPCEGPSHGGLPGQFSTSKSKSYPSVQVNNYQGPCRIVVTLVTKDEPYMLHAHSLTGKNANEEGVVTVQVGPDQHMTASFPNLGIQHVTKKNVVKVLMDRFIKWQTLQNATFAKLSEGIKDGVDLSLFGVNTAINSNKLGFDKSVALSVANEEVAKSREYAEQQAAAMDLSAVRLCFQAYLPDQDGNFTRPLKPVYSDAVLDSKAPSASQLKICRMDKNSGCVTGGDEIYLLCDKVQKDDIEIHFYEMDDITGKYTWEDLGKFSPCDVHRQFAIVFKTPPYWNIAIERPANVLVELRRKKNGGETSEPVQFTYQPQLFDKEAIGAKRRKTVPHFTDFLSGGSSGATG"}, "[3]": {"biological_target": "T3, GST-Co-NF-kB (UniProt F1ARL5)", "T3 sequence": "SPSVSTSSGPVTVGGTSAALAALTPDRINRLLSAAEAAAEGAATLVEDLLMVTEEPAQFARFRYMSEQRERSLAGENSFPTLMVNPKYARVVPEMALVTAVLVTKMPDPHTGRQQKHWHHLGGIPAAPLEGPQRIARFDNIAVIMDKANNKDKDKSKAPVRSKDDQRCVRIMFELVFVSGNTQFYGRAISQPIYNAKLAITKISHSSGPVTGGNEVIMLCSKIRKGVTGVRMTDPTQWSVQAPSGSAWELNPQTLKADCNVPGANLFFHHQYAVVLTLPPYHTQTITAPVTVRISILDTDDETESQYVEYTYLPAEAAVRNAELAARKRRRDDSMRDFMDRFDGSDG"}, "[4]": {"biological_target": "T4, GST-Dm-Relish (UniProt Q94527)", "T4 sequence": "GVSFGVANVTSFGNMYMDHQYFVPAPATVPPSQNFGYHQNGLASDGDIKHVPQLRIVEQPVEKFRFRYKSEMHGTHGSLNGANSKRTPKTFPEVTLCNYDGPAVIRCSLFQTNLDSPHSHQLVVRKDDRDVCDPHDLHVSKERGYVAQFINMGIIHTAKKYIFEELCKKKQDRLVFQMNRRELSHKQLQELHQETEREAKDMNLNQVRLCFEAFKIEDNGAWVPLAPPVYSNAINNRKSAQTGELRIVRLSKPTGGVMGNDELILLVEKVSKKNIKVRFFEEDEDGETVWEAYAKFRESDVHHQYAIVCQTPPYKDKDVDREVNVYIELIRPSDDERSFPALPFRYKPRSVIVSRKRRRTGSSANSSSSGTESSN"}, "[5]": {"biological_target": "T5, GST-Aq-NF-kB (UniProt A9Y5G7)", "T5 sequence": "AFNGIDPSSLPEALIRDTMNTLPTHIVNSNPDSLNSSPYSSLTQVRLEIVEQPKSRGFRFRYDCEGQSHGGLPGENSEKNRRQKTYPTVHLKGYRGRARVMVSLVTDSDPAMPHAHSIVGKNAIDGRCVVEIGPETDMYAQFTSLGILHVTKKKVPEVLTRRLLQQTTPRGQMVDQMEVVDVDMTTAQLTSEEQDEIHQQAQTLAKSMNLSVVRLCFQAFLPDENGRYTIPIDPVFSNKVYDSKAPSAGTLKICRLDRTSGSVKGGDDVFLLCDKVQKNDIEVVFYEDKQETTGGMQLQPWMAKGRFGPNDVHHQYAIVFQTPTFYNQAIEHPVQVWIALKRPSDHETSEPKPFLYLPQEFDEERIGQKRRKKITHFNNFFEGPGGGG"}},
  "note": "The entries are a selection whose mix differs from that of the whole data set. The list includes weakly bound sequences.",
  "data": [
    {"sequence": "CCGATTAACATCAGCTGCCTCCATGATGTTAATCGGGTCTTGATTCGCTTGACGCTGCTG", "values": [
      {"measurement": "binding signal", "setting": "[1]", "result": 0.32, "unit": "z-score"},
      {"measurement": "binding signal", "setting": "[2]", "result": -0.907, "unit": "z-score"},
      {"measurement": "binding signal", "setting": "[3]", "result": -0.181, "unit": "z-score"},
      {"measurement": "binding signal", "setting": "[4]", "result": -0.638, "unit": "z-score"},
      {"measurement": "binding signal", "setting": "[5]", "result": -0.688, "unit": "z-score"}
    ]},
    {"sequence": "CCGATTAACATCAGGCCCGTTTGTGATGTTAATCGGGTCTTGATTCGCTTGACGCTGCTG", "values": [
      {"measurement": "binding signal", "setting": "[1]", "result": 0.474, "unit": "z-score"},
      {"measurement": "binding signal", "setting": "[2]", "result": 0.0462, "unit": "z-score"},
      {"measurement": "binding signal", "setting": "[3]", "result": 0.256, "unit": "z-score"},
      {"measurement": "binding signal", "setting": "[4]", "result": 0.724, "unit": "z-score"},
      {"measurement": "binding signal", "setting": "[5]", "result": 0.643, "unit": "z-score"}
    ]},
    {"sequence": "CCGATTAACATCACCTCAACCAATGATGTTAATCGGGTCTTGATTCGCTTGACGCTGCTG", "values": [
      {"measurement": "binding signal", "setting": "[1]", "result": 0.199, "unit": "z-score"},
      {"measurement": "binding signal", "setting": "[2]", "result": -0.0889, "unit": "z-score"},
      {"measurement": "binding signal", "setting": "[3]", "result": 0.877, "unit": "z-score"},
      {"measurement": "binding signal", "setting": "[4]", "result": -0.0663, "unit": "z-score"},
      {"measurement": "binding signal", "setting": "[5]", "result": 0.352, "unit": "z-score"}
    ]},
    {"sequence": "CCGATTAACATCATTTGACTTGCTGATGTTAATCGGGTCTTGATTCGCTTGACGCTGCTG", "values": [
      {"measurement": "binding signal", "setting": "[1]", "result": -0.257, "unit": "z-score"},
      {"measurement": "binding signal", "setting": "[2]", "result": -0.223, "unit": "z-score"},
      {"measurement": "binding signal", "setting": "[3]", "result": -0.151, "unit": "z-score"},
      {"measurement": "binding signal", "setting": "[4]", "result": -0.682, "unit": "z-score"},
      {"measurement": "binding signal", "setting": "[5]", "result": -0.426, "unit": "z-score"}
    ]},
    {"sequence": "CCGATTAACATCACAACGTCTTATGATGTTAATCGGGTCTTGATTCGCTTGACGCTGCTG", "values": [
      {"measurement": "binding signal", "setting": "[1]", "result": -0.46, "unit": "z-score"},
      {"measurement": "binding signal", "setting": "[2]", "result": -0.637, "unit": "z-score"},
      {"measurement": "binding signal", "setting": "[3]", "result": -0.101, "unit": "z-score"},
      {"measurement": "binding signal", "setting": "[4]", "result": -0.249, "unit": "z-score"},
      {"measurement": "binding signal", "setting": "[5]", "result": -0.424, "unit": "z-score"}
    ]},
    {"sequence": "CCGATTAACATCAAGGCATGCTCTGATGTTAATCGGGTCTTGATTCGCTTGACGCTGCTG", "values": [
      {"measurement": "binding signal", "setting": "[1]", "result": -0.359, "unit": "z-score"},
      {"measurement": "binding signal", "setting": "[2]", "result": 0.395, "unit": "z-score"},
      {"measurement": "binding signal", "setting": "[3]", "result": -1.69, "unit": "z-score"},
      {"measurement": "binding signal", "setting": "[4]", "result": -1.06, "unit": "z-score"},
      {"measurement": "binding signal", "setting": "[5]", "result": -0.437, "unit": "z-score"}
    ]},
    {"sequence": "CCGATTAACATCACCAATTGGTATGATGTTAATCGGGTCTTGATTCGCTTGACGCTGCTG", "values": [
      {"measurement": "binding signal", "setting": "[1]", "result": -0.267, "unit": "z-score"},
      {"measurement": "binding signal", "setting": "[2]", "result": -0.463, "unit": "z-score"},
      {"measurement": "binding signal", "setting": "[3]", "result": -0.75, "unit": "z-score"},
      {"measurement": "binding signal", "setting": "[4]", "result": -0.419, "unit": "z-score"},
      {"measurement": "binding signal", "setting": "[5]", "result": -0.305, "unit": "z-score"}
    ]},
    {"sequence": "CCGATTAACATCAGCATACCGAGTGATGTTAATCGGGTCTTGATTCGCTTGACGCTGCTG", "values": [
      {"measurement": "binding signal", "setting": "[1]", "result": -0.0672, "unit": "z-score"},
      {"measurement": "binding signal", "setting": "[2]", "result": -0.179, "unit": "z-score"},
      {"measurement": "binding signal", "setting": "[3]", "result": 0.186, "unit": "z-score"},
      {"measurement": "binding signal", "setting": "[4]", "result": -0.736, "unit": "z-score"},
      {"measurement": "binding signal", "setting": "[5]", "result": -0.401, "unit": "z-score"}
    ]},
    {"sequence": "CCGATTAACATCAGCTGAGTAGGTGATGTTAATCGGGTCTTGATTCGCTTGACGCTGCTG", "values": [
      {"measurement": "binding signal", "setting": "[1]", "result": 0.731, "unit": "z-score"},
      {"measurement": "binding signal", "setting": "[2]", "result": -0.23, "unit": "z-score"},
      {"measurement": "binding signal", "setting": "[3]", "result": -0.628, "unit": "z-score"},
      {"measurement": "binding signal", "setting": "[4]", "result": 0.298, "unit": "z-score"},
      {"measurement": "binding signal", "setting": "[5]", "result": 0.35, "unit": "z-score"}
    ]}
  ]
}
